According to the supplement of paper PMC3334620:
Over roughly 33,000 sequences, “E-score (-0.5 to 0.5)” has its median near -0.012; the highest 2% begin near 0.29. The list shows a part of the results.

target: T1, Ybr033w (UniProt P38073); experiment: PBM E-score (8-mer binding enrichment) (E-score (-0.5 to 0.5)); higher = stronger / more preferred TF binding; most listed sequences are background and not binding sites; conditions: protein concentration: 200 nM; construct: GST-full length
T1 sequence: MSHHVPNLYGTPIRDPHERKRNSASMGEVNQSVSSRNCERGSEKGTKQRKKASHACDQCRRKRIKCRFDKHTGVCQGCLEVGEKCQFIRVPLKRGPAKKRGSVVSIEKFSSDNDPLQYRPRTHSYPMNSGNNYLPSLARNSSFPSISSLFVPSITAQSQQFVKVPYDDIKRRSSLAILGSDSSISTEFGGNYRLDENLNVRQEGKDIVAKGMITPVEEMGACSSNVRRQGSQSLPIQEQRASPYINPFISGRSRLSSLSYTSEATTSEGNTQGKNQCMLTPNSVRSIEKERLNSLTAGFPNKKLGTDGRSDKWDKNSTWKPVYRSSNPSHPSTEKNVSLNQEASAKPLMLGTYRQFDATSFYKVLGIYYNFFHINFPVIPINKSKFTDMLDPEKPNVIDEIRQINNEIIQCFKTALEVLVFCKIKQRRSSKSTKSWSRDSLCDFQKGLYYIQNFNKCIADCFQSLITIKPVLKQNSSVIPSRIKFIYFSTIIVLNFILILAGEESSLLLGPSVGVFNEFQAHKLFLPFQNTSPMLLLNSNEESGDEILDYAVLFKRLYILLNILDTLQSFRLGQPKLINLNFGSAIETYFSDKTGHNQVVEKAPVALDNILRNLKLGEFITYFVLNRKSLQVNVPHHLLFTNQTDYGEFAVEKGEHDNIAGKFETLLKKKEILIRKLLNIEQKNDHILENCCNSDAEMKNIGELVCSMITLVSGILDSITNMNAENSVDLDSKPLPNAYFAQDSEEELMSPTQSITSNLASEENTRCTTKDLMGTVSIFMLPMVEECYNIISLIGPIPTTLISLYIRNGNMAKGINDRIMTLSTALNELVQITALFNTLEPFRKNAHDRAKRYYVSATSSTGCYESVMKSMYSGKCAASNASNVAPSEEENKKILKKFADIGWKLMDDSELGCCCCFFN
Summary of the method: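 Universal all-10-mer Agilent arrays, fresh or stripped once, were converted to double-stranded form by primer extension. GST-tagged yeast transcription factors from PURExpress in vitro transcription/translation, full-length or DNA-binding domain only, were applied at about 100-200 nM and detected with fluorescent anti-GST. After masliner normalisation, the Universal PBM Analysis Suite scored each ungapped eight-base word together with its reverse complement by E-score.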

| Sequence | PBM E-score |
| --- | --- |
| GCGGTATA | 0.0766 |
| CGGAATTA | 0.407 |
| CTATATAC | 0.26 |
| CCAACAGG | -0.121 |
| CCCGTTCA | -0.202 |
| ACCTGATA | 0.107 |
| TTGACAAA | 0.23 |
| AAAGGGGG | -0.306 |
| GTGGCTAA | 0.0232 |
| ACAATCGT | -0.172 |
| GGTACTAA | 0.125 |
| CCAAGCGG | -0.209 |
| ACGATCCC | -0.257 |
| GGAAGTTA | 0.118 |
| AGGCATCC | -0.174 |
| ATTTCCCA | 0.236 |
| ATAACACG | 0.127 |
| GGTTCATA | 0.0724 |
| CCCCCCGG | -0.445 |
| AATCAAAC | 0.176 |
| CCCTGTGA | -0.0983 |
| CCTGTTAC | 0.0689 |
| CGAACAGC | -0.123 |
| CTGTGAAG | 0.0203 |
| GTTGCTAA | 0.257 |

| Sequence | PBM E-score |
| --- | --- |
| CGATCTAC | -0.0159 |
| ATTGCAAG | 0.115 |
| CCCGAAAG | -0.0796 |
| CATGTGGC | -0.0578 |
| AGGCAGAA | 0.0336 |
| AAGGCTAT | -0.028 |
| AGATCACA | -0.114 |
| CCACTTAC | 0.0573 |
| CTAGCCGC | -0.0909 |
| AGAGATCC | 0.00324 |
| ACTACAAT | 0.169 |
| GGCGCGCC | -0.112 |
| AACTGCTC | -0.0412 |
| CCTGGGGC | -0.307 |
| ACATGAAT | 0.102 |
| CGCTCTCC | -0.275 |
| CCCCTCCA | -0.141 |
| CTATAACA | -0.0609 |
| ACGATGGG | -0.0786 |
| AGATTCCC | -0.116 |
| CATTTCAC | 0.0384 |
| TAATCAGA | 0.18 |
| GCCCTCAC | -0.234 |
| CTCCGCAC | -0.0452 |
| CATCTGCC | -0.162 |

| Sequence | PBM E-score |
| --- | --- |
| ACGCGCCC | -0.17 |
| GTTGGCTA | -0.0174 |
| AACAGATC | 0.131 |
| GGGTTACC | -0.288 |
| CCAGTCCG | -0.253 |
| CCATTATC | 0.131 |
| ATAGCCTA | 0.0325 |
| ATAACGGA | 0.116 |
| AGGCTTAT | -0.0296 |
| GCTGCTAA | 0.108 |
| AATACAGG | -0.0547 |
| CGTGCAAC | -0.111 |
| GTCTTAGA | -0.0985 |
| CAATTGTA | 0.0127 |
| ATCAGATC | -0.0139 |
| ACAACCCC | -0.196 |
| GATGGTAC | 0.0342 |
| AGACTACC | 0.028 |
| GCATAGCC | -0.292 |
| ATCAAACC | 0.109 |
| CGTGGATA | 0.116 |
| AACGAGTA | 0.169 |
| AGCACACT | 0.0632 |
| ACGTTCAG | -0.207 |
| GCGGTACA | -0.108 |

| Sequence | PBM E-score |
| --- | --- |
| ATCCAGTC | 0.0535 |
| AAGCGGTC | -0.0595 |
| ATTCCTCC | 0.169 |
| AAGTGATT | 0.2 |
| CTGTTCGA | -0.0495 |
| GGGTGAAC | 0.00071 |
| CTAACGAA | 0.0607 |
| ATAGACCG | -0.115 |
| GACTTTTA | 0.0661 |
| CTGTTGCC | -0.136 |
| CTTCGCTC | -0.0737 |
| CAGCTGGG | -0.128 |
| GGTTAATA | 0.209 |
| GAAATCCA | 0.108 |
| CTGCCGTC | -0.295 |
| ATACGCGG | 0.0172 |
| AGGGACTG | -0.18 |
| GCAAAAGA | -0.0441 |
| GTGTTTAA | 0.17 |
| ACGATTAG | 0.134 |
| ATAGCCCG | -0.171 |
| ATAGCTCC | -0.159 |
| CAAAAGTC | 0.0859 |
| CACTCCAA | -0.0547 |
| ATGGGAAA | 0.0136 |

| Sequence | PBM E-score |
| --- | --- |
| GTGTCTTA | -0.0217 |
| ACCATAGT | 0.13 |
| GCTATACA | 0.0601 |
| CGCCATCC | -0.111 |
| GTAAACAA | 0.298 |
| CTTTCTTA | -0.051 |
| AAGATCCA | 0.0702 |
| GTTCAATA | 0.179 |
| CTTCCGGA | 0.274 |
| GCGTAATA | 0.188 |
| GACTCGGC | -0.236 |
| AGTACGCG | 0.137 |
| GAATAGTC | -0.0353 |
| TATCCCCA | -0.0488 |
| ATGGTATA | 0.0634 |
| GGAAAGAA | 0.0259 |
| ACTGGGTC | -0.276 |
| TGGCGCCA | 0.0225 |
| CCTGGGAC | -0.349 |
| CGGGGTCA | -0.176 |
| TGCGCCAA | 0.0304 |
| AACCTCTG | -0.0697 |
| AACAAGTA | 0.132 |
| CCCTCCCA | -0.146 |
| GCTTACGA | -0.022 |

| Sequence | PBM E-score |
| --- | --- |
| ATTCTAAC | 0.0811 |
| GTAATAGA | 0.17 |
| CGTCTCAA | 0.162 |
| AAAGAAAA | 0.272 |
| CCCCTTAC | -0.27 |
| AGTATACG | 0.0864 |
| AATTTACA | 0.134 |
| ATAACATC | 0.204 |
| CAATAGCA | -0.00585 |
| ACTACGCC | -0.159 |
| CTTACCAC | -0.105 |
| AATAACCA | 0.239 |
| AATACAAC | 0.271 |
| GAGGAATC | 0.0289 |
| ATGATTAC | 0.175 |
| AAATAAAA | 0.233 |
| AGCCAGTA | -0.161 |
| ACATTCAG | -0.0265 |
| TAGATATA | 0.0906 |
| TCGGGCAA | 0.00269 |
| GTTGCGAA | 0.0149 |
| GTCGGTAA | -0.166 |
| AGACAGCG | -0.215 |
| CGCACGGC | -0.104 |
| ATATAAAC | 0.142 |

| Sequence | PBM E-score |
| --- | --- |
| GGGTTTAA | 0.113 |
| AGTCGGCC | -0.224 |
| CATGAGGA | 0.0386 |
| CCCCACGA | -0.156 |
| GACATTAA | 0.166 |
| TCCACGAA | 0.208 |
| TACAGCTA | -0.17 |
| CGACTTGC | -0.0989 |
| ACGCAAAT | 0.0741 |
| GTGAGGAA | -0.00376 |
| ACAATGAT | 0.0257 |
| CGTGAAAC | -0.137 |
| ATGTTGAA | 0.216 |
| AGTTTCAA | 0.117 |
| CTCAATGC | -0.0435 |
| AACGATGC | -0.167 |
| AAACGAGT | 0.193 |
| AGCTCCTC | -0.233 |
| CCGTGCCC | -0.237 |
| CTCACGTC | -0.252 |
| AAAATATG | 0.299 |
| GAAACGAA | 0.188 |
